From PMC12136788
The other results are listed elsewhere or left out.

T1: UNK ZnF1-3 (human, UniProt Q9C0B0 31-174)
T1 sequence: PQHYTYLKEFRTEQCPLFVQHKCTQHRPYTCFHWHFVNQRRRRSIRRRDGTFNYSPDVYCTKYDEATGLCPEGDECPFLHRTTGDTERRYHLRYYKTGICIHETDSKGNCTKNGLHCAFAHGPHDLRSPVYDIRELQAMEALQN

B1: 120834331_120834451_773_CDS_ENSMUSG00000025162_ENSMUST00000018274|mouse|control|control (ssRNA)
RNA: GGGAGUUCUACAGUCCGACGAUCCUUGUUCUCUCGAUAGGGGAUAUGCUGGUGGGUGCGUGCAUCCCGAUACUUCUUGGCCAGCCCAAAGUCAAUGAUGUAGACCAGGUUGCCUUUCUUUCCCAGCCCCAUGAGGAAGUUAUCCAACAGAGGAUUGAGCAUCA
B2: chr1:157179356:157179357:-_ENSMUSG00000026469_ENSMUST00000027741|perfect_dup|motif|central (ssRNA)
RNA: GGGAGUUCUACAGUCCGACGAUCCAGGAUUAGACUGAGGUAGAACUCACUGAAGGCCAGUUUAAGGUCUUUAAUAUUUCGGUGUUGGACACGUUCCUCAUGGGACAAGUGGAAGACUGGCUUUCUGCGUUGUCGCAGCGUAGUCAACAGAGGAUUGAGCAUCA
B3: chr14:66974463:66974464:+_ENSMUSG00000022044_ENSMUST00000074523|mus_hu|FALSE|FALSE (ssRNA)
RNA: GGGAGUUCUACAGUCCGACGAUCUUGUAGGACGACUUAUUCAGGGGAUCGGCCAGGAAGCAGGAGCAGAACAAGGACACCAGCGGGAGCUCCUUCAUCUUCUCUUUGUAGGCAGCAAGGGUCAUGUUUCUGGGAUCUGGUGGCCAACAGAGGAUUGAGCAUCA
B4: 94333749_94369099_1498_3pUTR_ENSMUSG00000074785_ENSMUST00000099337|mouse|control|control (ssRNA)
RNA: GGGAGUUCUACAGUCCGACGAUCUGGUUCUCUCUCGGAGGCUUCGAAGUAUCUGAAUUUUCGGGCAUUUUUUAGGUCCUGAUGAAAUAUCCAGCCAGUUUUCAAAGCUCCCAGCAUGUGUGCAAUCCCCUUGAAAAGUGCACCCAACAGAGGAUUGAGCAUCA
B5: chr8:74858975:74858976:-_ENSG00000154582_ENST00000284811|hu_mus|hu_hu_hu_mus_True|8_38 (ssRNA)
RNA: GGGAGUUCUACAGUCCGACGAUCGACCUUGUAGGUAAAAUACAUGCACACUUUUGAUAGCACAUGUGAGGGGAUCUCUCUAAAAUUGACCUCGUUGGUUUCGUUCUCAGCAAACUGACCUGGACCACUCAACAUGGCCUUUAUCAACAGAGGAUUGAGCAUCA
B6: chr11:102150864:102150865:-_ENSMUSG00000059995_ENSMUST00000137387|mus_mus|motif|central (ssRNA)
RNA: GGGAGUUCUACAGUCCGACGAUCAUUAGUACAGAACCCCCCCACACACAGACACAUGAUAGGAUACAGGGUGGACGACACCGGGCCAGGGUGGGGAGGAUGGGAAUUGAAACCCACACAGCCUGCUGUUAGAGGGAGGGAGUGCAACAGAGGAUUGAGCAUCA
B7: chr11:86532819:86532820:-_ENSMUSG00000047126_ENSMUST00000103186|perfect_dup|FALSE|FALSE (ssRNA)
RNA: GGGAGUUCUACAGUCCGACGAUCCAUGGCUCUGAGGCAUUCUAGGGAAUCUUCAACUGAUAAGGACCCAAAGUAAUUCACUAACCACUCAGGGUUAAGAAGAUGGGUAUGAACAACUGCACGUUUUAUGUCAUAUAAAUCGGUCAACAGAGGAUUGAGCAUCA
B8: chr2:117085994:117085995:+_ENSMUSG00000027349_ENSMUST00000028825|mus_hu|motif|central (ssRNA)
RNA: GGGAGUUCUACAGUCCGACGAUCUGACUUGGGUAUACCAAGUGUAUCAAACAUAGCUUGAACUUCCUGAUAAACUUCACGGUUUUUAUCUAAUUGAGAAUUUUUAUGUUUCUUGUUCUGUAAUAUCUGUGAAGCUUGAAGUUCCAACAGAGGAUUGAGCAUCA
B9: 42882279_42882399_11055_3pUTR_ENSG00000168172_ENST00000307602|human|control|control (ssRNA)
RNA: GGGAGUUCUACAGUCCGACGAUCAAGUCUCUCGGUAGACAAGUUGAAAACUUUGCUAUAUAUGAAUGUAAGAAAAUGGCCAAGUUCACUGGGCAUGGUGGCUCACGCCUAUAAUAAUCCCAGCACUUUGGGAGGCUGAGGCGGCAACAGAGGAUUGAGCAUCA
B10: chr8:38067721:38067722:+_ENSG00000156735_ENST00000287322|hu_hu|motif|central (ssRNA)
RNA: GGGAGUUCUACAGUCCGACGAUCUUUUUUAAUACUCGGAGGAGUACUUUCAUCUGAAGGUACACAUUCUUCAGGAAGACUGCGGCUUUGAUCUUGAUUGUUGGGAUGGUCACUGGUGGCAUUACCAUACAGCUGAGGCUCAGCCAACAGAGGAUUGAGCAUCA
B11: chr11:87793471:87793472:-_ENSMUSG00000020483_ENSMUST00000020775|mus_mus|mus_mus_mus_hu_False|1_38 (ssRNA)
RNA: GGGAGUUCUACAGUCCGACGAUCUGGACUUGAAAAUAAAAGAAUAAGCUGGAUCCCCCACCCCCCCACAUUGUCAACCCUACACGAGAGUUUUGAAUGAUUCAUAAGAAAAUCAGCAGCUCAAACGGCAAUGACCACCCACCCCAACAGAGGAUUGAGCAUCA
B12: chr11:100452861:100452862:-_ENSMUSG00000014195_ENSMUST00000014339|mus_mus|FALSE|FALSE (ssRNA)
RNA: GGGAGUUCUACAGUCCGACGAUCCAUUCGUAAAAUGUCACUGGCCACAAACUGUGCUUCUGGGUAUCGACCAAGCAUUGCUAAACAUUCUGCUUUGAGAAUUUUGAAUCGAUGGCAGGCAGGGGCAAAUUCUAGGGCACGGUCCAACAGAGGAUUGAGCAUCA
B13: chr15:88994910:88994911:-_ENSMUSG00000036606_ENSMUST00000109331|mus_hu|FALSE|FALSE (ssRNA)
RNA: GGGAGUUCUACAGUCCGACGAUCGUUCUCCUCCAGGCUCAUGGCCUGGCGGCAGUCGUAGAAGGGGUACUGGUAGGACGUGAGGAAGAUGUUGCCUCGUCUAAGGAGGAGCUGGAUGGUCACGGCCACGUGGUCCUGGCCUGGCAACAGAGGAUUGAGCAUCA
B14: 34637268_34637388_314_CDS_ENSG00000147955_ENST00000277010|human|control|control (ssRNA)
RNA: GGGAGUUCUACAGUCCGACGAUCCAGCGAGGCGUGCAGAAGGCACAUGGCGCCCAUCCAGCCACCCGCAUUCACGAACACCCACUGCAGCUCCUCGUCGGGCAGCACGUGGCCUGGGUGCAGCCGCCGCAGCUCCACGAUCAGCAACAGAGGAUUGAGCAUCA
B15: chr2:131764077:131764078:+_ENSMUSG00000079037_ENSMUST00000091288|mus_hu|FALSE|FALSE (ssRNA)
RNA: GGGAGUUCUACAGUCCGACGAUCAACAUGCAAAGUUACAAAUAUAGAAAAUAUAAAGUACAUGCAUAUUUCAAAGACCUGUUAAUGGUGUCCACUUUGGAUUCUUACAUGAAACGAUUCAGUGCACAUUGUAAGCCUAAGGACCAACAGAGGAUUGAGCAUCA
B16: chr3:176767854:176767855:-_ENSG00000177565_ENST00000430069|hu_hu|hu_hu_hu_mus_False|8_8 (ssRNA)
RNA: GGGAGUUCUACAGUCCGACGAUCGACAUCCUUGUUACUGGGCACGUCCUGCCCUCCUUCCCGUAUGCAGUGUCUAAGCACGAGCUGCGUAGGGCCACUCGUGCUGUUCUCACUGAGGUUCCAGAUUCUUGCUGUUGAGUCUCCCAACAGAGGAUUGAGCAUCA
B17: chr7:106494041:106494042:-_ENSMUSG00000070436_ENSMUST00000094154|mus_hu|motif|central (ssRNA)
RNA: GGGAGUUCUACAGUCCGACGAUCCUUGGAUUGAUAGCAACAAAGGCUCAUGUUCCCCCUUCCCUCCCUAUCUUUGAAGAACGGAAAAAGGAAGAAACAAAACAAAAAGUUCAUCCCCACAACGCCAGACACGAUGCUUCUUGACAACAGAGGAUUGAGCAUCA
B18: 59759775_59761010_851_CDS_ENSMUSG00000026020_ENSMUST00000027174|mouse|control|control (ssRNA)
RNA: GGGAGUUCUACAGUCCGACGAUCAACCUCUGUUCCCAUAGAUAUCUCUGCAGCUGCUUUCACUUCUGCUUCUACUUCCUCAGACAGGAAUUCAGAGAGAGAGGCAGAUGCAUAGUUCUUCCUGUCCCCAACUUUCUGUAAACACAACAGAGGAUUGAGCAUCA
B19: chrX:35985205:35985206:-_ENSMUSG00000048970_ENSMUST00000058265|mus_mus|FALSE|FALSE (ssRNA)
RNA: GGGAGUUCUACAGUCCGACGAUCUUUGUUAGGGGCUUGCAGAUGGUGAUGCUCAUGGUGGUGCAUUCUGUUUCCAAUCCUAAUGUGGCCUAGCAUAGUGAUCAAGGCACAGAAGAUGCUUCCAAGCAUCACACCCUUCAAAAACAACAGAGGAUUGAGCAUCA
B20: chr9:104324587:104324588:+_ENSG00000155827_ENST00000389120|hu_mus|FALSE|FALSE (ssRNA)
RNA: GGGAGUUCUACAGUCCGACGAUCCUUGCGCUGGCGAGUGUCAUAGCGCGUCUUCACACACUCAAAGCAGAAAACGUGAAAACACUUGGUAAGUACUGCAUCCUUUUUACGCAUGUUACAGCAAGGGCAGGUCAGCCGUGCCUUCAACAGAGGAUUGAGCAUCA
B21: chr2:127629987:127629988:-_ENSMUSG00000027379_ENSMUST00000028858|mus_hu|motif|central (ssRNA)
RNA: GGGAGUUCUACAGUCCGACGAUCACCAGAUGUUUCACACUUUGCUGUGAAUAUAGUUCCUUUUGGAAAAAGUUUCAUAUCGGUACUCUGACCCAGGUCAAUCAGUGCCAAGCCAGCAGAUAAAUCAUCUUCAUCAUCCUGUUCCAACAGAGGAUUGAGCAUCA
B22: chr9:123232447:123232448:-_ENSG00000136861_ENST00000349780|hu_mus|motif|central (ssRNA)
RNA: GGGAGUUCUACAGUCCGACGAUCCAAUUGGAACUGAUUGUGCUCUUCAAGGCAAAUACUCAGAUACGAUGUUUGAUCGCGGUAAAAUGAAAACGGCUCUUCUUCUCGACUCCGAAUCUCACUGAGCUGCUCCUGCAGGGCCUUCAACAGAGGAUUGAGCAUCA

target: T1, UNK ZnF1-3; test: nsRBNS (natural sequence RNA bind-n-seq); RBNS binding buffer (assumed for nsRBNS): 25 mM Tris pH 7.5, 150 mM KCl, 3 mM MgCl2, 0.01% Triton X-100, 500 ug/ml BSA, 20 U/ml SUPERase-In, 4 C; UNK is unkempt and MSI1 is Musashi-1; names of the RNAs are library labels; protein concentration not given here; high values mean tight binding

Binder	binding signal [enrichment R]
B1	0.756
B2	0.832
B3	2.32
B4	0.923
B5	0.501
B6	1.79
B7	1.15
B8	0.188
B9	1.57
B10	0.67
B11	2.2
B12	1.28
B13	0.877
B14	0.719
B15	1.55
B16	0.397
B17	1.06
B18	0.616
B19	0.824
B20	0.671
B21	0.908
B22	0.749
